Measurements taken from PubChem BioAssay AID1159614 (National Center for Advancing Translational Sciences (NCATS), 2016).
The whole screen tested about 45,000 compounds, of which about 65 (0.1%) were called active. Calls come from the whole dose curve; as a rule, active = well fitted activation curve with a large enough effect; inconclusive = small, poorly fitted or top-dose-only effect; inactive = no such curve, though single readings can be large or run the other way. The list shows a part of the results.

molecular target: Galactocerebrosidase (Homo sapiens) (UniProt P54803); test: A Novel Cell-Based Assay to Identify Small Molecules for B -Galactocerebrosidase; conditions: 145M-Twi-hGALC-G270D cells (Twitcher mouse brain line with human GALC G270D), HMU-beta-Gal fluorescence, 48 h; series mostly up to 57.5 µM; activation: at the top concentration; note: 0% is about no effect; nearly all actives have a fitted effect of over 65% in size
Chain of UniProt P54803 (P54803 whole entry, looked up): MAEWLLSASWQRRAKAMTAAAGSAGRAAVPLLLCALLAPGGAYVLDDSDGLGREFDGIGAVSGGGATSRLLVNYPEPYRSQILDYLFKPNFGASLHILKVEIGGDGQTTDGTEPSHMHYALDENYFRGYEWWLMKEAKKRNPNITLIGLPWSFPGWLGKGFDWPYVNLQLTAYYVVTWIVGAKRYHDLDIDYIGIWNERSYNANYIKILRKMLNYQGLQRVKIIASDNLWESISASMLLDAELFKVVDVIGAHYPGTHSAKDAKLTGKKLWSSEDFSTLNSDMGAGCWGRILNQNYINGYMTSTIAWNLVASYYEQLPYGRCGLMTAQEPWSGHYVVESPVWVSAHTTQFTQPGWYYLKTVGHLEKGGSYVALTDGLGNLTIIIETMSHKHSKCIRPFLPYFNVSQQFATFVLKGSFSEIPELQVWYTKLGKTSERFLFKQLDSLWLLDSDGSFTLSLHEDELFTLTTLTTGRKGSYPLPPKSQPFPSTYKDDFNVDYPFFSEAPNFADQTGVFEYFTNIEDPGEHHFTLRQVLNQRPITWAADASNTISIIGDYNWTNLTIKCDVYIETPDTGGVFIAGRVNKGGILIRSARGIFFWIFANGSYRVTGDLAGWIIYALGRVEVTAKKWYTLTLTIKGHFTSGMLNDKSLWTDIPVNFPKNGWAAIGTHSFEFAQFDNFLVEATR
Summary of the method: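 Mutant human GALC (G270D), stably expressed in a Twitcher mouse brain cell line lacking endogenous GALC, is measured in live-treated cells via 6-hexadecanoylamino-4-methylumbelliferyl-β-galactoside hydrolysis (0.1 mM final, pH 5.2) with fluorescent detection.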

| Structure (SMILES) | activation |
| --- | --- |
| COc1cccc2c1cc1c(=O)n(CC(=O)N3CCN(c4ccc(Cl)cc4)CC3)nc(C)n12 | inactive: -10.4% |
| Fc1ccc(Nc2ncnc3onc(-c4cccc(Cl)c4)c23)c(F)c1 | inactive: -2.81% |
| Cc1ccc(S(=O)(=O)NC2(C(F)(F)F)NC(=O)N(CCc3ccccc3)C2=O)cc1 (configuration not stated) | inactive: -13.9% |
| CCC(C(=O)NCc1ccco1)n1nc(C)c2c(C)n(-c3ccc(C)cc3)nc2c1=O (configuration not stated) | inactive: -3.34% |
| Cn1c(=O)c2c(-c3cccc(Br)c3)n(C(C)(C)CO)cc2n(C)c1=O | inactive: -20.4% |
| CN(C)c1ccc(CNC(=O)c2cccc(NC(=O)N3CCSc4ncccc43)c2)cc1 | inactive: -24.1% |
| COc1cccc(C(=O)N2CCN(CCc3ccncc3)CC2)c1 | inactive: 13.4% |
| Cc1cccc(C(=O)NCC(=O)OCc2cc(=O)n3nc(CC(C)C)sc3n2)c1 | inactive: -9.67% |
| O=C(Nc1ccccc1Cl)C1CCN(c2nc3ccccc3nc2C(F)(F)F)CC1 | inactive: -7.84% |
| O=C(NCCn1cc(SCc2ccccc2Cl)c2ccccc21)c1cccs1 | inactive: 0.58% |
| Cc1cc(C)cc(NC(=O)Cn2cc(S(=O)(=O)NC(C)(C)C)c(S(=O)(=O)NC(C)(C)C)c2)c1 | inactive: -5.11% |
| CCOc1ccccc1NC(=O)CSc1nnc2[nH]c(=O)cc(-c3ccccc3)n12 | inactive: -2.05% |
| COc1ccc(-c2cc(C(F)(F)F)nc(S(C)(=O)=O)n2)cc1 | inactive: -7.56% |
| CCOC(=O)c1sc2ccccc2c1S(=O)(=O)Nc1ccc(CC)cc1 | inactive: -37.6% |
| CCOc1ccc(N2CC(NC(=O)/C=C\c3ccc4c(c3)OCO4)CC2=O)cc1 (configuration not stated) | inactive: -9.82% |
| COc1ccc(-n2ccnc(NCc3ccccc3OC)c2=O)cc1 | inactive: -12.4% |
| CNC(=O)c1c(NC(=O)c2ccc(S(=O)(=O)N3CCCCC3)cc2)sc2c1CCC2 | inactive: -3.42% |
| COc1ccc(CNC(=O)CN2C(=O)COc3ccc(S(=O)(=O)Nc4ccccc4)cc32)cc1 | inactive: -30.2% |
| CCOC(=O)c1cc2c(=O)n3ccccc3nc2n(C(C)C)c1=NC(=O)c1cc2ccccc2o1 | inactive: -6.24% |
| COc1ccc(-n2nc(C(=O)N3CCCC(C)C3)c3c4ccccc4n(C)c3c2=O)cc1 (configuration not stated) | inactive: 4.6% |
| CCc1ccc(C(=O)c2cn(CC(=O)NC3CCCCC3)c3nc(C)ccc3c2=O)cc1 | inactive: 2.35% |
| O=C(c1ccccc1)n1nc(-c2ccccc2)nc1NCc1ccc(F)cc1 | inactive: -21.4% |
| O=C(Nc1ccc(F)c(F)c1)c1cc(S(=O)(=O)NC2CCCCCC2)ccc1F | inactive: -17.6% |

| Structure (SMILES) | activation |
| --- | --- |
| COc1ccc(NS(=O)(=O)c2cc(Br)cc3c2N(C(=O)C2CC2)CC3)cc1OC | inactive: -12% |
| CCCCN(CCCC)CCNC(=O)Cn1nc(C)n2c(cc3sccc32)c1=O | inactive: -21.7% |
| COc1cccc(CNC(=O)c2ccc3c(c2)c(C)c(C)n3Cc2ccccc2)c1OC | inactive: -9.92% |
| CC(C)c1ccc(NC(=O)CS(=O)(=O)c2cccc3nsnc23)cc1 | inactive: -12.6% |
| CSc1nc2c(c(=O)[nH]1)C(c1cccc(F)c1F)CC(=O)N2 (configuration not stated) | inactive: -11.4% |
| NS(=O)(=O)c1ccc(CCNc2nccn(-c3cccc(C(F)(F)F)c3)c2=O)cc1 | inactive: -15.1% |
| O=S(=O)(Nc1cc(F)ccc1F)c1ccc2[nH]c3c(c2c1)CCCC3 | inactive: -10.1% |
| CC(C)(C)C(=O)Nc1ccc2nc(SCC(=O)N3CCOCC3)sc2c1 | inactive: -1.02% |
| O=C(Cc1ccccc1)NC1CC(=O)N(c2ccccc2)C1 (configuration not stated) | inactive: -2.48% |
| Cc1cc(-c2nc3ncccc3o2)ccc1NC(=O)COc1ccccc1C | inactive: -10.7% |
| CCOC(=O)c1ccccc1NC(=O)CSc1ccc(-c2cccs2)nn1 | inactive: -4.78% |
| Cc1ccc2occ(CC(=O)N(Cc3ccc(Cl)cc3)C3CCS(=O)(=O)C3)c2c1 (configuration not stated) | inactive: -11.4% |
| COc1ccc(-c2cc(C(F)(F)F)nc(SCCC(=O)Nc3ccccc3F)n2)cc1 | inactive: -13.5% |
| O=c1c2oc3ccccc3c2n(Cc2cccc(Cl)c2)c(=O)n1Cc1ccco1 | inactive: -4.23% |
| CCN(CC)c1ccc(NC(=O)c2cnc3c(-c4ccccc4)c(C)nn3c2C)c(C)c1 | inactive: -15.4% |
| Cc1c(NC(=O)c2cc(-c3ccc(F)cc3)on2)c(=O)n(-c2ccccc2)n1C | inactive: -9.4% |
| Cc1nnc(N2CCN(C(=O)NC(C)C)CC2)c2nn(-c3ccccc3)c(C)c12 | inactive: -22% |
| CCc1ccc(Nc2nn(-c3ccc(OC(F)(F)F)cc3)nc2C(C)=O)cc1 | inactive: 2.32% |
| Cn1cc(S(=O)(=O)c2cccc(Cl)c2)c(=O)c2cc(F)c(N3CCN(c4ccc(F)cc4)CC3)cc21 | inactive: -11.4% |
| Cc1ccc(-c2noc(CNS(=O)(=O)c3ccc(F)cc3)n2)cc1 | inactive: -12.1% |
| Cc1cccc(OCC(=O)Nc2nc3c(s2)CC(C(C)(C)C)CC3)c1C (configuration not stated) | inactive: -17.7% |
| COc1ccccc1N1CCN(C(=O)CN2C(=O)COc3ccc(S(=O)(=O)N4CCCCCC4)cc32)CC1 | inactive: -6.98% |
| Cn1nnc2c(N3CCN(c4ccccc4)CC3)ncnc21 | inactive: -18.9% |

| Structure (SMILES) | activation |
| --- | --- |
| COCCn1c(SCC(=O)c2ccc(C)cc2C)nc2cc(C(=O)NC3CCCC3)ccc2c1=O | inactive: -8.88% |
| O=C(c1noc2c1CCCCC2)N1CCN(c2cccc(C(F)(F)F)c2)CC1 | inactive: -34.4% |
| CC(=O)c1c(C)oc2c(Br)cc(NS(=O)(=O)c3ccc(Br)cc3)cc12 | inactive: -26.5% |
| CC(C)c1ccc(NC(=O)c2cc(S(=O)(=O)N3CCCCC3)cn2C)cc1 | inactive: 9.36% |
| COc1ccccc1CNc1nc2ccc(Cl)cc2n2cnnc12 | inactive: -23.4% |
| COC(=O)c1cc(NC(=O)c2nn(C)c3c2CSc2ccccc2-3)cc(C(=O)OC)c1 | inactive: 1.6% |
| Cc1ccc(Cl)cc1N1CCN(C(=O)C2CCN(S(=O)(=O)c3cccc4nonc34)CC2)CC1 | inactive: -19.2% |
| Cc1ccccc1OC(=O)CSc1nnc(-c2ccc3c(c2)OCO3)o1 | inactive: -5.65% |
| Cc1ccc(C(=O)Nc2ccc(S(=O)(=O)O)c3cc(S(=O)(=O)O)cc(S(=O)(=O)O)c23)cc1NC(=O)c1cccc(NC(=O)Nc2cccc(C(=O)Nc3cc(C(=O)Nc4ccc(S(=O)(=O)O)c5cc(S(=O)(=O)O)cc(S(=O)(=O)O)c45)ccc3C)c2)c1 | inactive: -14.9% |
| CN1CCN(C(=O)Cn2c(-c3cccs3)cc3cc(Cl)ccc32)CC1 | inactive: -16% |
| CC(=O)Nc1ccc(S(=O)(=O)Nc2ccc([N+](=O)[O-])cc2)cc1 | inactive: -14.2% |
| CCOc1ccc(N(CC)S(=O)(=O)N2CCCC(C(=O)Nc3cc(Cl)ccc3C)C2)cc1 (configuration not stated) | inactive: -9.52% |
| COC(=O)[C@H]1[C@H]2C[C@@H]3c4[nH]c5cc(OC)ccc5c4CCN3C[C@H]2C[C@@H](OC(=O)/C=C/c2ccc(O)c(OC)c2)[C@@H]1OC | inactive: -6.21% |
| CC(C)COc1ccc(C2=NC(c3ccncc3)=Nc3ccc(F)cc3N2)cc1 | inactive: 17.9% |
| Cc1ccc(-c2n[nH]c3c2C(c2cccc(O)c2)N(c2ccc(C(=O)O)cc2)C3=O)cc1 (configuration not stated) | inactive: -10% |
| CCN(CC)CCNC(=O)c1ccc(CSc2nc3ccncc3n2Cc2cccc(F)c2)cc1 | inactive: -33.5% |
| CC(C)(C)c1ccc(C(=O)N2CCC(c3nc(-c4ccc(S(=O)(=O)N5CCCC5)cc4)no3)CC2)cc1 | inactive: -10.4% |
| CCCCN(CC)CCCNC(=O)Cn1ncc2c3ccccc3n(Cc3ccccc3F)c2c1=O | inactive: -9.2% |
| CCOc1ccc(-c2cc3c(=O)n(Cc4nc(-c5ccc(OC(C)C)cc5)oc4C)ccn3n2)cc1Cl | inactive: 12.4% |
| O=C(CCCn1c(=O)c2ccccc2n(CC(=O)Nc2cccc(C(F)(F)F)c2)c1=O)NCc1ccc2c(c1)OCO2 | inactive: 2.32% |
| Cc1ccccc1-c1nc(CN2CCC(C(=O)NCCc3ccccc3)CC2)c(C)o1 | inactive: -10.8% |
| CCCN(CCC)S(=O)(=O)c1ccc2c(c1)N(CC(=O)NCc1ccc(F)cc1Cl)C(=O)CS2 | inactive: -9.26% |
| O=C(Cn1nc(N2CCN(c3ccccc3)CC2)ccc1=O)Nc1ccc(F)cc1F | inactive: -12.3% |

| Structure (SMILES) | activation |
| --- | --- |
| O=C(Oc1ccccc1)c1cccc(C(=O)Oc2ccccc2)c1 | inactive: -12.7% [at 129 µM] |
| COc1cc(C2SC[C@H]3C(=O)N(c4ccccc4)C(=O)N23)cc(OC)c1OC (some centres not stated) | inactive: -39.2% |
| COc1ccc(CNC(=O)C2CCCN(C(=O)N3CCOc4ccccc43)C2)cc1 (configuration not stated) | inactive: -25.3% |
| Cc1ccc(S(=O)(=O)c2nnn3c2nc(NC(C)c2ccccc2)c2sccc23)cc1 (configuration not stated) | inactive: 13.8% |
| COc1cccc(N2CCN(c3ncnc4c3c(-c3ccccc3)cn4-c3ccc(C)cc3)CC2)c1 | inactive: -19% |
| O=C(NCc1cccn1Cc1ccccc1)Nc1ccc(Br)cc1F | inactive: -19% |
| O=C(Nc1ccccc1C(=O)OCc1cc(=O)n2ccsc2n1)c1ccc(Cl)cc1 | inactive: -4.94% |
| O=C(COCc1cc(-c2ccc(F)cc2)on1)Nc1cccc(Cl)c1Cl | inactive: -13% |
| CCCc1cc(=O)[nH]c2nnc(SCC(=O)Nc3ccc(OC)cc3)n12 | inactive: -6.41% |
| Cc1ccc(S(=O)(=O)NC(=O)NC2CCCCC2)cc1 | inactive: -14.6% |
| Cc1ccc(Cl)cc1NC(=O)Nc1nnc(N2CCCC(C)C2)s1 (configuration not stated) | inactive: -11.3% |
| CCN(CC)S(=O)(=O)c1ccc2c(c1)nc(CN(C)C(=O)Nc1ccc(Cl)cc1)n2C | inactive: -12.3% |
| CCOC(=O)c1c(C)[nH]c(C)c1S(=O)(=O)NCC(=O)NCc1ccc(C)cc1 | inactive: -14% |
| COc1ccccc1CNC(=O)CCNS(=O)(=O)c1ccc2c(c1)CCCC(=O)N2 | inactive: -19.4% |
| CCOc1ccc(N2CC(NC(=O)c3ccc(S(=O)(=O)N4CCCC4)cc3)CC2=O)cc1 (configuration not stated) | inactive: -7.16% |
| COCCNC(=O)c1c(-c2ccccc2)c(-c2ccccc2)nn(C)c1=O | inactive: -9.12% |
| Cc1ccc(-n2nc3c(=O)n(CCCC(=O)NCc4ccccc4C)nc(C)c3c2C)cc1 | inactive: -4.36% |
| Cn1c(=O)oc2cc(S(=O)(=O)N3CCC(C(=O)NCc4ccccc4)CC3)ccc21 | inactive: -12.4% |
| Cc1ccc([N+](=O)[O-])cc1S(=O)(=O)N1CCn2cccc2C1c1ccccc1F (configuration not stated) | inactive: -3.24% |
| CCOC(=O)c1c(C)c(-c2ccccc2)n(CC(=O)NCc2cccc(OC)c2)c1C | inactive: -10.4% |
| O=C(NCc1cccn1Cc1ccccc1)Nc1cccc(C(F)(F)F)c1 | inactive: -18.1% |
| O=C(Cn1c(=O)n(Cc2ccc(Cl)cc2)c(=O)c2cccnc21)Nc1ccccc1C(F)(F)F | inactive: -3.98% |
| CN(Cc1ccc(F)cc1)S(=O)(=O)c1nnc(NC(=O)c2ccccc2Br)s1 | inactive: -21.4% |
